One block for each binder: values may come before it.
Experiments:
Human TGFβ1 protein [1] = target: T1, Human TGFβ1 protein (human, UniProt P01137 in part); assay: cell-based or functional assay
[2] = target: human PD-1 on Jurkat-NFAT-PD-1 cells (human, UniProt Q15116 25-288); assay: cell-based or functional assay
[3] = target: T2, Human PD-1 protein (ACRObiosystems, Cat #PD1-H5221) (human, UniProt Q15116 in part); assay: BLI (Octet RED96), Trap-15 on AHC biosensors, PD-1 in solution, 1:1 fit
T2 construct: Bought soluble protein
From the text: (§1) The association and dissociation curves were fit to a 1:1 Langmuir binding model using Octet evaluation software.

[4] = target: T3, cynomolgus PD-1 (Acrobiosystems, Cat. #PD1-C5223) (cynomolgus, UniProt B0LAJ3 25-170); assay: as above
T3 construct: Bought soluble protein; not shown: The vendor's tag on the bought protein (Acrobiosystems PD1-C5223, probably a C-terminal His tag)
T3 sequence (B0LAJ3 entry or part of it limits assumed): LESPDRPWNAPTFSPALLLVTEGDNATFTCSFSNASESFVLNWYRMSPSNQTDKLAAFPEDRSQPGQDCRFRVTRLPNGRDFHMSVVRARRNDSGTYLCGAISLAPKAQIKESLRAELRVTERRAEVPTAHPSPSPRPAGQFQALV
From the text: as §1

Human TGFβ1 protein [5] = target: T1, Human TGFβ1 protein; assay: BLI (Octet RED96), Trap-15 on AHC biosensors, TGFβ1 in solution, 1:1 fit
T1 sequence (P01137 279-390 limits assumed): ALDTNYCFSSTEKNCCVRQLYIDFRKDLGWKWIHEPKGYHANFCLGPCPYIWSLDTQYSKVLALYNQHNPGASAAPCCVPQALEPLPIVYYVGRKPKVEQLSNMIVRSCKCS
From the text: as §1

[6] = target: T4, rat TGFβ1 (Novoprotein, Cat. CK33) (rat, UniProt P17246 in part, limits assumed); assay: as above
T4 construct: Bought protein
T4 sequence (P17246 279-390 limits assumed): as the sequence (P01137 279-390 limits assumed) above, with A75S counted along it
From the text: as §1

Human TGFβ1 protein [7] = target: T1, Human TGFβ1 protein; assay: ELISA, human TGFβ1 coated at 10 ng/well, detection with HRP goat anti-human Fc, OD450-620 [right panel]
Description: (§2) The plates were then blocked by incubation with 1% BSA in PBS for one hour at 37° C. After blocking, the plates were washed three times with PBST (PBS containing 0.05% Tween 20). […] After binding, the plates were washed three times with PBST, incubated for one hour at 37° C. with peroxidase-labeled Goat anti-human Fc antibody (Jackson Immuno Research, Cat #109-035-098) diluted 1/20,000 in binding buffer, washed again, developed with TMB (ThermoFisher Cat #34028) for 15 minutes, and then stopped with 1M H₂SO₄. The absorbance at 450 nm-620 nm was determined.

[8] = target: T2, Human PD-1 protein (ACRObiosystems, Cat …); assay: ELISA, human PD-1 coated at 25 ng/well, detection with HRP goat anti-human F(ab')2, OD450-620 [right panel]
Description: (§3) An ELISA assay was performed for determination of the relative binding capacity of the fusion proteins to human PD-1.
as §2, with “Human PD-1 protein (ACRObiosystems, Cat #PD1-H5221) was immobilized onto 96-well plates in PBS (Hyclone, Cat #SH30256.01) by incubation overnight at 4° C., 25 ng/well. The” for “The”, “F(ab′)²” for “Fc”, “#109-035-097)” for “#109-035-098)”, “(ThermoFisher,” for “(ThermoFisher”, “Each plate well contained 50 μL of solution” for “The absorbance”, “each step.” for “450 nm-620 nm was determined.”

Human TGFβ1 protein [9] = target: T1, Human TGFβ1 protein; assay: ELISA, human TGFβ1 coated at 10 ng/well, detection with HRP goat anti-human Fc, OD450-620 [left panel]
Description: as §2

[10] = target: T2, Human PD-1 protein (ACRObiosystems, Cat …); assay: ELISA, human PD-1 coated at 25 ng/well, detection with HRP goat anti-human F(ab')2, OD450-620 [left panel]
Description: as §3
as §2, with “Human PD-1 protein (ACRObiosystems, Cat #PD1-H5221) was immobilized onto 96-well plates in PBS (Hyclone, Cat #SH30256.01) by incubation overnight at 4° C., 25 ng/well. The” for “The”, “F(ab′)²” for “Fc”, “#109-035-097)” for “#109-035-098)”, “(ThermoFisher,” for “(ThermoFisher”, “Each plate well contained 50 μL of solution” for “The absorbance”, “each step.” for “450 nm-620 nm was determined.”

Chain of Human PD-1 protein (ACRObiosystems, Cat #PD1-H5221) (Q15116 25-167 limits assumed): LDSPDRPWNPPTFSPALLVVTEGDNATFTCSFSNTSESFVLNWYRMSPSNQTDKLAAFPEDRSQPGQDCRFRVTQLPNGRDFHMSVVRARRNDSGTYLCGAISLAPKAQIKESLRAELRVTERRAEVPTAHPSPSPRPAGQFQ

B1: Trap-15 (other)
heavy: QMQLVQSGAEVKKPGASVKLSCKASGYPFQSYYIHWVRQAPGQGLEWVGVINPSGGSTTYAQKFQGRVTMTRDTSISTAYMELSRLRSDDTVVYYCARGSYSSGWDYYYYYGMDVWGKGTLVTVSSASTKGPSVFPLAPSSKSTSGGTAALGCLVKDYFPEPVTVSWNSGALTSGVHTFPAVLQSSGLYSLSSVVTVPSSSLGTQTYICNVNHKPSNTKVDKKV[human IgG1 Fc with L234A L235A D265A P329A (EU numbers) skipped]AGGGGSGGGGSGGGGSGGGGSIPPHVQKSVNNDMIVTDNNGAVKFPQLCKFCDVRFSTCDNQKSCMSNCSITSICEKPQEVCVAVWRKNDENITLETVCHDPKLPYHDFILEDAASPKCIMKEKKKPGETFFMCSCSSDECNDNIIFSEEYNTSNPD
light: [about 120 residues skipped][about 100 residues skipped]
notes: Anti-PD-1 antibody with a TGFβRII extracellular domain linked by a (G4S)4 linker to the C-terminus of each heavy chain; Fc mutated to abolish ADCC and CDC; also called fusion protein Trap-15
IC50, inhibition of TGFβ1-induced (1.2 ng/ml) luciferase signal in 293T/SBE-luc2P reporter cells (Human TGFβ1 protein [1]): 0.00576 nM | EC50, rise of NFAT luciferase signal in Jurkat-NFAT-PD-1 cells co-cultured with CHO-OKT3-PD-L1 cells [2]: 0.157 nM | Kd [3]: 5.24 nM | koff [3]: 0.000736 s⁻¹ | kon [3]: 140000 M⁻¹ s⁻¹ | Kd [4]: 9.66 nM | koff [4]: 0.0012 s⁻¹ | kon [4]: 125000 M⁻¹ s⁻¹ | Kd (Human TGFβ1 protein [5]): 0.136 nM | koff (Human TGFβ1 protein [5]): 0.00019 s⁻¹ | kon (Human TGFβ1 protein [5]): 1.4e+06 M⁻¹ s⁻¹ | Kd [6]: 0.0719 nM | koff [6]: 9.74e-05 s⁻¹ | kon [6]: 1.36e+06 M⁻¹ s⁻¹ | EC50 (Human TGFβ1 protein [7]): 0.112 nM | EC50 [8]: 0.0799 nM

B4: M7824 (other)
heavy: EVQLLESGGGLVQPGGSLRLSCAASGFTFSSYIMMWVRQAPGKGLEWVSSIYPSGGITFYADTVKGRFTISRDNSKNTLYLQMNSLRAEDTAVYYCARIKLGTVTTVDYWGQGTLVTVSSASTKGPSVFPLAPSSKSTSGGTAALGCLVKDYFPEPVTVSWNSGALTSGVHTFPAVLQSSGLYSLSSVVTVPSSSLGTQTYICNVNHKPSNTKVDKRV[human IgG1 Fc skipped]GGGGSGGGGSGGGGSGGGGSGIPPHVQKSVNNDMIVTDNNGAVKFPQLCKFCDVRFSTCDNQKSCMSNCSITSICEKPQEVCVAVWRKNDENITLETVCHDPKLPYHDFILEDAASPKCIMKEKKKPGETFFMCSCSSDECNDNIIFSEEYNTSNPD
light: QSALTQPASVSGSPGQSITISCTGTSSDVGGYNYVSWYQQHPGKAPKLMIYDVSNRPSGVSNRFSGSKSGNTASLTISGLQAEDEADYYCSSYTSSSTRVFGTGTKVTVLGQPKANPTVTLFPPSSEELQANKATLVCLISDFYPGAVTVAWKADGSPVKAGVETTKPSKQSNNKYAASSYLSLTPEQWKSHRSYSCQVTHEGSTVEKTVAPTECS
IC50, inhibition of TGFβ1-induced (1.2 ng/ml) luciferase signal in 293T/SBE-luc2P reporter cells (Human TGFβ1 protein [1]): 0.00543 nM

Continued, values first:

EC50 (Human TGFβ1 protein [9]): 0.149 nM | EC50 [10]: 0.0844 nM
B2: Trap-13 (other)
heavy: QMQLVQSGAEVKKPGASVKLSCKASGYPFQSYYIHWVRQAPGQGLEWVGVINPSGGSTTYAQKFQGRVTMTRDTSISTAYMELSRLRSDDTVVYYCARGSYSSGWDYYYYYGMDVWGKGTLVTVSSASTKGPSVFPLAPSSKSTSGGTAALGCLVKDYFPEPVTVSWNSGALTSGVHTFPAVLQSSGLYSLSSVVTVPSSSLGTQTYICNVNHKPSNTKVDKKV[human IgG1 Fc with L234A L235A D265A P329A (EU numbers) skipped]ADKTHTCPPCPAPELLGGPSIPPHVQKSVNNDMIVTDNNGAVKFPQLCKFCDVRFSTCDNQKSCMSNCSITSICEKPQEVCVAVWRKNDENITLETVCHDPKLPYHDFILEDAASPKCIMKEKKKPGETFFMCSCSSDECNDNIIFSEEYNTSNPD
light: [about 120 residues skipped][about 100 residues skipped]
notes: Anti-PD-1 antibody with a TGFβRII extracellular domain linked by a linker to the C-terminus of each heavy chain; made in CHO-S cells, purified on Protein A; also called fusion protein Trap-13

EC50 (Human TGFβ1 protein [7]): 0.167 nM | EC50 [10]: 0.0681 nM
B3: Trap-14 (other)
heavy: QMQLVQSGAEVKKPGASVKLSCKASGYPFQSYYIHWVRQAPGQGLEWVGVINPSGGSTTYAQKFQGRVTMTRDTSISTAYMELSRLRSDDTVVYYCARGSYSSGWDYYYYYGMDVWGKGTLVTVSSASTKGPSVFPLAPSSKSTSGGTAALGCLVKDYFPEPVTVSWNSGALTSGVHTFPAVLQSSGLYSLSSVVTVPSSSLGTQTYICNVNHKPSNTKVDKKV[human IgG1 Fc with L234A L235A D265A P329A (EU numbers) skipped]ASKYGPPCPPCGGPSIPPHVQKSVNNDMIVTDNNGAVKFPQLCKFCDVRFSTCDNQKSCMSNCSITSICEKPQEVCVAVWRKNDENITLETVCHDPKLPYHDFILEDAASPKCIMKEKKKPGETFFMCSCSSDECNDNIIFSEEYNTSNPD
light: [about 120 residues skipped][about 100 residues skipped]
notes: Anti-PD-1 antibody with a TGFβRII extracellular domain linked by a linker to the C-terminus of each heavy chain; also called fusion protein Trap-14
